Experimental data published in the supplement of paper PMC10126150.
Sequences with one replicate were seen in a single cluster, so their values are uncertain.

Test system: ATP
Assay: switch fluorescence ratio, 500 uM ATP over buffer (Cy3 cluster intensity, sum of 5 cycles each) (fold (ratio)); higher = stronger signal-on switching upon ATP binding; sequences stand for … in TCGTCGGCAGCGTCAGATGTGTATAAGAGACAGTTTTTTTTTTTTTTTTTTTTTTTTT…TC
Settings: aptamer strand: ATP DNA aptamer (quencher-CACCTGGGGGAGTATTGCGGAGGAAGG + anchor), 100 nM annealed; ATP concentration: 500 uM; one replicate
Procedure, shortened: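 Imaging in selection buffer was followed by imaging after 15 min with 500 uM ATP at 22 °C, for Cy3-labelled switching-strand clusters annealed to 100 nM quencher-labelled ATP aptamer on a modified Illumina MiSeq flow-cell. Five of these buffer/ATP cycles ran, separated by NaOH stripping and re-annealing. The fluorescence ratio per cluster is summed target-cycle over summed buffer-cycle Cy3 intensity, averaged per switch-domain sequence; clusters outside 100-1000 RFU were removed.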
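Note: ATP exposure 15 min at 22 °C before imaging.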

Row | Sequence | switch fluorescence ratio
1 | TACAGATTTA | 1.01
2 | ACCCTA | 1.1
3 | GCGCCTCCAA | 1.34
4 | GGTAGCCTCA | 0.947
5 | CACCAAATTA | 1.02
6 | CGGGGTTGTA | 0.959
7 | TTGACATTTC | 0.994
8 | GGCTGGCCCG | 0.973
9 | GACCACCTCG | 1.08
10 | GAGTGCGAGC | 1.02
11 | GGGGTATTC | 1.08
12 | GTATGAGCGT | 0.989
13 | CAAGTGGTCT | 0.994
14 | CCGGTCGGTT | 1.02
15 | ACGTAAAGT | 1.04
16 | TCAGCCAGTT | 0.972
17 | AAGTGCGCTG | 1.01
18 | AGCGAACGGA | 1.01
19 | GCTTCAATTT | 0.993
20 | ACTCTCCACT | 1.15
21 | CCACTGAACT | 1.18
22 | TCGTAGATTT | 0.981
23 | ACGTTGGACC | 1.09

Row | Sequence | switch fluorescence ratio
24 | GTGGTTACGG | 0.989
25 | TGAGACACT | 1
26 | TCAAAGT | 1
27 | TGACCTTTGA | 1.04
28 | CATAGGCCCA | 0.998
29 | GTCGAGGATC | 1.01
30 | CGAAATTCAG | 1
31 | TGTGTACGGG | 1
32 | GGGGGCTCGA | 1.02
33 | GTCAATACCG | 1.08
34 | ACCTTCTAGT | 1.05
35 | AAGGCCCTGT | 1.03
36 | GCGGGTTCAA | 0.984
37 | TTTATTAAA | 1.05
38 | CGGGGTTAGT | 0.978
39 | GTGGCGTCTT | 1
40 | GGTTCCGCTC | 2.22
41 | TGAAGAGTGG | 0.952
42 | TATACCGGCT | 1.08
43 | CGGCGCTCAG | 0.993
44 | CATATGCTCT | 0.987
45 | TGGATAACG | 0.967
46 | ATATTTCGGT | 0.969

Row | Sequence | switch fluorescence ratio
47 | CTGCGCAGGG | 1.08
48 | TCAAGGAAGA | 1.02
49 | TCTGGCGAG | 1.08
50 | TTTCCAACGT | 0.98
51 | GATACTGCCC | 1.68
52 | CATAAAGCGA | 3.05
53 | CAATGCATAT | 1.03
54 | TCGGAGAGTT | 1.01
55 | AAACACTTTG | 0.998
56 | GGCAGGCGTG | 1.01
57 | TTGATAGTGT | 1.01
58 | GCGGCGGAAA | 1.02
59 | CCGCTCACGG | 1.11
60 | AGAGTTTACA | 1.01
61 | CATTTACGT | 1.03
62 | CTTGACCTTG | 0.98
63 | CAAAGGAATT | 1
64 | TATCTATTTA | 1.04
65 | AATGTGTTT | 0.955
66 | TCCATGAGAG | 0.958
67 | TGGCTTGGCA | 1.02
68 | GGCGGGCCGT | 1.01
69 | TGCATTAAAG | 1.02

Row | Sequence | switch fluorescence ratio
70 | TGCGCGCTAC | 1.38
71 | AGGTTAAGGC | 1.01
72 | ATATGCATTT | 1
73 | GTAGGTAGGA | 0.966
74 | TTGTGTGGAG | 1
75 | CCTACCAACT | 1.94
76 | AGTTTAATCT | 1.02
77 | ACTCAGAGTT | 0.977
78 | GAATGCTGTT | 0.977
79 | TAGGTGTGGT | 0.949
80 | TGAGACATTA | 1.05
81 | CAGGTCGTCT | 1.15
82 | GGAAGAGGTT | 1.16
83 | TAAGCAGAAG | 1.06
84 | GTCTACTAGA | 1.01
85 | GGAGGTGGCA | 0.969
86 | GAGGGACGG | 0.972
87 | TGCTCGGCAT | 1.44
88 | ACCAGCTGAT | 0.982
89 | GGGGGCGCG | 1.02
90 | AGTCTATAAT | 0.979
91 | TGAACGGCTG | 1.09
92 | TAAGTAGAAA | 0.965

Row | Sequence | switch fluorescence ratio
93 | ACAAGCGCGG | 0.968
94 | TAGTAAGGAT | 1.02
95 | AAGTAATGT | 1.05
96 | TGAGTTGGTA | 0.966
97 | GATAATGCAA | 1.08
98 | TCCCCATATG | 1.02
99 | CAATAGATCG | 1.02
100 | CAGATTCGTG | 0.966
101 | ACATGACCGA | 1.16
102 | CGTAGGTTCT | 0.966
103 | TCGTCCATGG | 1.03
104 | TTCCATCAAT | 1.04
105 | GGGTGTTGGG | 1.04
106 | TAACTCTAGC | 0.987
107 | ATGTGTTAGA | 1.06
108 | TTAAAGTCCT | 0.99
109 | AAGCGCACGG | 1.05
110 | CTACTTGTT | 0.962
111 | ACAGATGGGT | 1.03
112 | CTTTTGCATA | 1.23
113 | AATTATGCGG | 0.92
114 | TCGATAGGGC | 1
115 | GGCTTTAAG | 1.01

Row | Sequence | switch fluorescence ratio
116 | AGGGGCACGT | 0.991
117 | TTTTACCGGT | 1.04
118 | GACCCAAAAA | 1.8
119 | GATAAAGGAA | 0.989
120 | GGGACTCGCG | 0.982
121 | CTCTTTTTAT | 1.02
122 | GCTCGAACTG | 1
123 | ATCTCTTCGT | 0.998
124 | GATTTATACA | 1.03
125 | CGGCGAACGA | 1.06
126 | TAGCAGCTAT | 0.999
127 | TGTTGAAGAG | 1.01
128 | AAGCGAAGG | 0.962
129 | AACCATCCGC | 2.55
130 | GAACTTATA | 1.01
131 | CGATTCATAT | 0.952
132 | CGGCTGTGCA | 0.998
133 | ATACGGTTGG | 1.03
134 | GAGTCTTAGT | 1
135 | TGCAGTGCGC | 1.03
136 | CTATAACGCT | 1
137 | TCATGGCTCT | 0.994
138 | GGGATAGATG | 0.984

Row | Sequence | switch fluorescence ratio
139 | CTAACCGGCC | 2.09
140 | CCTGTATGCG | 1.08
141 | TCTCATGTAA | 2.3
142 | TTTTTACCGG | 1.03
143 | GCCATCCCAC | 1.14
144 | TGCGCCGTAG | 0.991
145 | CGGGACTTGC | 1.06
146 | GTTATAGATC | 0.979
147 | AGTGACAGCT | 1.04
148 | CTGGGTCCAG | 0.964
149 | GGTATTATCT | 0.998
150 | CAATCCTAGT | 0.977
151 | AAGTGAGGAA | 0.994
152 | TAAATTCTTT | 0.992
153 | TCTCTGATCG | 1.02
154 | GGGGAGAGC | 1
155 | AATCGATTAT | 0.997
156 | TAGTATGATA | 0.999
157 | TGCGGGCTGG | 1.01
158 | TAGTGTTAGA | 1.02
